From patent publication US11178870B2 (priority 2017, dated 2021)

Experiments:
Magnaporthe grisea = type: in vivo; settings: class of control value, Table 7
Phytophthora infestans = type: in vivo; settings: class of control value, Table 7
[1] = system: Colletotrichum orbiculare; settings: 250 ppm spray, 2.5 ml/pot; investigated 6 to 10 days after inoculation

| Structure (SMILES) | Test A control value (blast on rice) (Magnaporthe grisea) | Test F control value (late blight on tomato) (Phytophthora infestans) | Test H control value (anthracnose on cucumber) [1] |
| --- | --- | --- | --- |
| Cc1sccc1-c1cc(Cl)c(=O)n(C)c1-c1c(F)cccc1F [Compound 484] | H (H shows the control value more than 50%) | L (L shows the control value of 50% or less) | L (L shows the control value of 50% or less) |
| CCn1c(-c2c(F)cccc2F)c(-c2sccc2C)cc(Br)c1=O [Compound 389] | H (H shows the control value more than 50%) | L (L shows the control value of 50% or less) | H (H shows the control value more than 50%) |
| CCn1c(-c2c(F)cccc2Br)c(-n2cc(F)cn2)cc(Br)c1=O [Compound 392] | H (H shows the control value more than 50%) | H (H shows the control value more than 50%) | L (L shows the control value of 50% or less) |
| CCn1c(-c2ccc(F)cc2Cl)c(-c2ccsc2Cl)cc(Cl)c1=O [Compound 460] | H (H shows the control value more than 50%) | L (L shows the control value of 50% or less) | H (H shows the control value more than 50%) |
| CN1C(=O)CCC(c2ccsc2Br)=C1c1c(F)cccc1F [Compound 454] | L (L shows the control value of 50% or less) | L (L shows the control value of 50% or less) | H (H shows the control value more than 50%) |
| CCn1c(-c2ccc(N3CCCCC3)cc2F)c(-n2ncc(C)c2Cl)cc(Br)c1=O [Compound 469] | H (H shows the control value more than 50%) | L (L shows the control value of 50% or less) | H (H shows the control value more than 50%) |
| Cc1ccsc1-c1cc(Cl)c(=O)n(CC(F)F)c1-c1c(F)cccc1F [Compound 445] | H (H shows the control value more than 50%) | L (L shows the control value of 50% or less) | H (H shows the control value more than 50%) |
